# Experimental data taken from PMC10726135.
# This is one part of the list. At the low end of the ranking the order means little. Measured with an extract: partners may take part in the binding.
# Target: T1, HNF4alpha2 (COS-7 nuclear extract) (UniProt P41235)
# T1 sequence: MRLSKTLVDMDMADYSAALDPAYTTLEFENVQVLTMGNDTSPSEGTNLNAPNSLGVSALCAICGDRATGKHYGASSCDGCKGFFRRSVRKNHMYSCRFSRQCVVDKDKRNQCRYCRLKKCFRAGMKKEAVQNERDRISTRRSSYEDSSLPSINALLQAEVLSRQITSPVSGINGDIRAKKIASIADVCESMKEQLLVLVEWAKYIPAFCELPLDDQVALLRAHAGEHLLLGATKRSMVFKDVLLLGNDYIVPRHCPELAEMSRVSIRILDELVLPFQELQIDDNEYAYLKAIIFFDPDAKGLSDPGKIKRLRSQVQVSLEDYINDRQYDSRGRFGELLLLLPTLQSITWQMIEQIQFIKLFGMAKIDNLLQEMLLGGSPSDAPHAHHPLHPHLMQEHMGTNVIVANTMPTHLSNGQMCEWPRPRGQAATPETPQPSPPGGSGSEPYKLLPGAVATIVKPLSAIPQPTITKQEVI
# Test: protein-binding microarray
# Details: COS-7 nuclear extract on double-stranded Agilent 4x180k PBM; binding buffer, salt, pH and temperature not given; high values mean tight binding; double strand, one strand shown; sequences stand for … in …GCCTAGGGAGATTAGAGTATCGGTCGA
row,Sequence,binding signal (log2 normalized intensity)
1,CCTCTGTTGCTTCAAAGGGCAAAAGGGCAA,5.03
2,CAACAACACAGATCATATCATTTATTTGCT,-1.06
3,ACTTGCGGGCGGGGGGTGGGGTGGAAGCTA,-1.09
4,CCTCCCCCTGGGGACAGGTGTTAATGTCTA,1.48
5,TGTGGTGTTCGCTAAGATGTAGCAAGAATG,1.28
6,ACGTTCACGTCTCAAGCTTCAGGAGTCCAC,2.07
7,CCTGCAACAGCCCCATGAGATAGGTACTAT,-0.519
8,TGTCCCCCAGGTCCAGCCTTTGGGCAGGGG,2.37
9,AGGCAGGAGTTAACTAACAAAAGCAGAGGA,-1.21
10,ACTCCTCTATCAGTACAAATAAACCTTTGA,3.51
11,GCTGCCTCCTATCCTCTGATCCCCAGGTCA,2.32
12,TGTCATCTCTGGCTAACAGGTCAGGGGCTC,0.92
13,ACTCAGTGGGGTGTCTGTGTGCCTCAGATT,1.6
14,GGTGGACTTTGTAGCTCAAACAGTCTAAAA,2.3
15,TGAACCTTCTTCTTGCAGTCCACATTTCTG,1.52
16,ATAAGAACGCTAGACACTGGGGACTAGTAG,-1.21
17,TGGCTAATAGATGGCGCAGCGGGTCAATTA,1.92
18,ATAAGCCCTGAGTAGTTCTTCTGGTTAGTT,1.55
19,AGCTGGGCCTGTGCTGGGGACAAAAGCTGA,-0.959
20,AAGTTAACTTTGTAACTAACAACTGACCTT,3.5
21,GGTAGCCTGGGTTAAAGTCCGTTACAGACA,3.68
22,CAAACCAAAGAGAAATGGTGTGGACAGCAG,-1.11
23,TGTTAGCAGAAACCATCTGGCTTGGCCCCC,3.89

row,Sequence,binding signal (log2 normalized intensity)
1,AATTGTGGCTTGTGTAGTTATCCAGTAACA,1.23
2,GTGGGGCAGAAAGGGCATGGATTTAGATAA,-1.01
3,TACATAGAGGGGGTCTAGGTTGGAGGAGCT,-0.921
4,AGTGGAAGGTATGGAGCTAAACAATTAAAG,-1.06
5,ATGGGCACCTCGTCCAGGTGTCTTCAGGCT,-1.19
6,GAGAATCCACCTGCCTGCTTGGCCTCTCCA,-1.1
7,TCTGCCGCTGCGCCACAGCACCACCTGCTG,-1.11
8,TTAGTCCCAGTATGGTCTCAGTAATGACAT,0.986
9,TTTCACAAGTTTAGCCAAGCAAACAAGTTC,-1.18
10,TGAATGGACTCTGCCCTTAGCAGTGGGAGA,3.86
11,ATGAAGATATATTCCTTCAGGAAGGCCTGT,0.708
12,GTATGTTCTTAAGATAAGGACTGTTGGACC,3.33
13,AAAGCAACAAAAACCAAATCACAATTTTCA,-1.15
14,CTTACATGGGTTAGGAGGATGACAAAGAGC,0.699
15,TTTTTGTGTGTGTGTCAGAGACCCAGAAAA,1.8
16,GGCAATTGATAATGATGTTTACATTCCAGA,1.13
17,TTGGTTTCCTACGGCTGCTGTAACAAGTGG,0.414
18,TACAAAGTTCACTTTCTTGTTTACTCACCT,1.12
19,GAGGTACCTAGGGGACATTCTTTAGAGGCT,-1.11
20,ATTACATCCAGAGTGGGACAAAGTTCCCCG,1.83
21,CTTTTTGACCTTGCAGTGGCAAGGCAAAAG,1.56
22,TGCAGTGTGTCTCCAGGAGCAATCATCGCA,-0.942
23,GTACTTCAACCAGGTTCTCTTTACTGAACG,1.56
